Results published in PMC3002266.
Results are given in words; binding and its absence hold for the method and conditions named. For some of these results: Binding seen in cells or lysates may run through a third protein. Some binding calls cover weakened binding; strength is not graded here. Where a sequence is shown, tags or fusion partners need not be part of it.

Chains of the proteins cited; added tags and fusions are not shown. Lines headed by an entry give the natural chain unless they say otherwise; changes in a name come on top.
UniProt P62993: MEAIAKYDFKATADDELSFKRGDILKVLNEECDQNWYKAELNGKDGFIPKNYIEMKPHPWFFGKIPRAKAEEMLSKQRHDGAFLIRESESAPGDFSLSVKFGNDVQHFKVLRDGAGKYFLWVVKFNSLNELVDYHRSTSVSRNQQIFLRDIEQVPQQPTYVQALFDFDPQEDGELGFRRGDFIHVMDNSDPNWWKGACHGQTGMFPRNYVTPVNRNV

Key:
[1] = target: LexA DNA-binding domain fusion of full length human HD-PTP (bait, pBridgeLexA-HD-PTP) (human) (UniProt Q9H3S7); experiment: two-hybrid; S. cerevisiae L40; bait LexA DNA-binding domain fusion of full length HD-PTP, preys GAL4 activation domain fusions (human colon cDNA library in pGAD-DS, and co-transformed single preys); HIS3 growth on SD-Trp-Leu-His-Met and beta-galactosidase filter assay; v-Src expressed without Met
[2] = target: EGFP-HD-PTP, full length (human) (UniProt Q9H3S7); experiment: co-IP; HEK293T cotransfected with EGFP-HD-PTP and Myc-GrpL (NP-40 lysis buffer) or HA-Grb2 (HEPES lysis buffer, 1% Triton X-100); anti-GFP antibodies and Protein A-Sepharose overnight at 4°C; blot with anti-Myc or anti-HA
GST-Grb2 = GST-Grb2 (UniProt P62993); experiment: pull-down; GST, GST-Grb2 or GST-GrpL pre-adsorbed to glutathione-Sepharose beads, incubated 1 h at 4°C with lysates of transfected HEK293T cells (NP-40 lysis buffer, 150 mM NaCl, pH 8.0); five washes; Western blot with anti-GFP; only the target purified
GST-GrpL = target: T1, GST-GrpL (UniProt O75791); experiment: as above
T1 sequence: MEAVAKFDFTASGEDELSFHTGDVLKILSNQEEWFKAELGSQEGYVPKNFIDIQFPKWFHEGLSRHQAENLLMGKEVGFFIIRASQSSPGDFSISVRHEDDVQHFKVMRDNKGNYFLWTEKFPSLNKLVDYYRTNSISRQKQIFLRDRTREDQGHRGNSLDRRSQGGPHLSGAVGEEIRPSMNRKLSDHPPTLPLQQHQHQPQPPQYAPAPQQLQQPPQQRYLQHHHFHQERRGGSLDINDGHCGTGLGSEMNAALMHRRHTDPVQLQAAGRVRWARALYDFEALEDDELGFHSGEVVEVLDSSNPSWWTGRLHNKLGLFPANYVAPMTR

binding [1] | binding [2] | binding (GST-Grb2) | binding (GST-GrpL) | Molecule
binds | – | – | – | GAL4 activation domain fusion of the C-terminal half of Grb2 (amino acid residues 114-217) (from UniProt P62993 114-217) (domain or fragment)
– | binds | – | – | HA-Grb2 (from UniProt P62993 1-217)
– | – | binds | binds | EGFP-HD-PTP, full length (from UniProt Q9H3S7 1-1636)
– | – | – | binds | EGFP-ΔPEST (HD-PTP lacking amino acid residues 1508-1595) (from UniProt Q9H3S7 1-1636)
– | – | – | binds | EGFP-ΔBro1 (705-1636) (domain or fragment, UniProt Q9H3S7 705-1636) QQLLDRELKKKPPPRPTAPKPLLPRREESEAVEAGDPPEELRSLPPDMVAGPRLPDTFLGSATPLHFPPSPFPSSTGPGPHYLSGPLPPGTYSGPTQLIQPRAPGPHAMPVAPGPALYPAPAYTPELGLVPRSSPQHGVVSSPYVGVGPAPPVAGLPSAPPPQFSGPELAMAVRPATTTVDSIQAPIPSHTAPRPNPTPAPPPPCFPVPPPQPLPTPYTYPAGAKQPIPAQHHFSSGIPAGFPAPRIGPQPQPHPQPHPSQAFGPQPPQQPLPLQHPHLFPPQAPGLLPPQSPYPYAPQPGVLGQPPPPLHTQLYPGPAQDPLPAHSGALPFPSPGPPQPPHPPLAYGPAPSTRPMGPQAAPLTIRGPSSAGQSTPSPHLVPSPAPSPGPGPVPPRPPAAEPPPCLRRGAAAADLLSSSPESQHGGTQSPGGGQPLLQPTKVDAAEGRRPQALRLIERDPYEHPERLRQLQQELEAFRGQLGDVGALDTVWRELQDAQEHDARGRSIAIARCYSLKNRHQDVMPYDSNRVVLRSGKDDYINASCVEGLSPYCPPLVATQAPLPGTAADFWLMVHEQKVSVIVMLVSEAEMEKQKVARYFPTERGQPMVHGALSLALSSVRSTETHVERVLSLQFRDQSLKRSLVHLHFPTWPELGLPDSPSNLLRFIQEVHAHYLHQRPLHTPIIVHCSSGVGRTGAFALLYAAVQEVEAGNGIPELPQLVRRMRQQRKHMLQEKLHLRFCYEAVVRHVEQVLQRHGVPPPCKPLASASISQKNHLPQDSQDLVLGGDVPISSIQATIAKLSIRPPGGLESPVASLPGPAEPPGLPPASLPESTPIPSSSPPPLSSPLPEAPQPKEEPPVPEAPSSGPPSSSLELLASLTPEAFSLDSSLRGKQRMSKHNFLQAHNGQGLRATRPSDDPLSLLDPLWTLNKT
– | – | binds | binds | EGFP-VHD (401-1128) (domain or fragment, UniProt Q9H3S7 401-1128) MQLDPETVDNLDAYSHIPPQLMEKCAALSVRPDTVRNLVQSMQVLSGVFTDVEASLKDIRDLLEEDELLEQKFQEAVGQAGAISITSKAELAEVRREWAKYMEVHEKASFTNSELHRAMNLHVGNLRLLSGPLDQVRAALPTPALSPEDKAVLQNLKRILAKVQEMRDQRVSLEQQLRELIQKDDITASLVTTDHSEMKKLFEEQLKKYDQLKVYLEQNLAAQDRVLCALTEANVQYAAVRRVLSDLDQKWNSTLQTLVASYEAYEDLMKKSQEGRDFYADLESKVAALLERTQSTCQAREAARQQLLDRELKKKPPPRPTAPKPLLPRREESEAVEAGDPPEELRSLPPDMVAGPRLPDTFLGSATPLHFPPSPFPSSTGPGPHYLSGPLPPGTYSGPTQLIQPRAPGPHAMPVAPGPALYPAPAYTPELGLVPRSSPQHGVVSSPYVGVGPAPPVAGLPSAPPPQFSGPELAMAVRPATTTVDSIQAPIPSHTAPRPNPTPAPPPPCFPVPPPQPLPTPYTYPAGAKQPIPAQHHFSSGIPAGFPAPRIGPQPQPHPQPHPSQAFGPQPPQQPLPLQHPHLFPPQAPGLLPPQSPYPYAPQPGVLGQPPPPLHTQLYPGPAQDPLPAHSGALPFPSPGPPQPPHPPLAYGPAPSTRPMGPQAAPLTIRGPSSAGQSTPSPHLVPSPAPSPGPGPVPPRPPAAEPPPCLRRGAAAADLLSSSPESQH
binds | – | – | – | GAL4 activation domain fusion of the C-terminal SH3 domain of GrpL (amino acid residues 254-330) (domain or fragment, UniProt O75791 254-330) AALMHRRHTDPVQLQAAGRVRWARALYDFEALEDDELGFHSGEVVEVLDSSNPSWWTGRLHNKLGLFPANYVAPMTR
binds | – | – | – | Activation Domain (AD)-GrpL, full length GrpL fused with the Gal4 activation domain (protein, UniProt O75791 1-330) MEAVAKFDFTASGEDELSFHTGDVLKILSNQEEWFKAELGSQEGYVPKNFIDIQFPKWFHEGLSRHQAENLLMGKEVGFFIIRASQSSPGDFSISVRHEDDVQHFKVMRDNKGNYFLWTEKFPSLNKLVDYYRTNSISRQKQIFLRDRTREDQGHRGNSLDRRSQGGPHLSGAVGEEIRPSMNRKLSDHPPTLPLQQHQHQPQPPQYAPAPQQLQQPPQQRYLQHHHFHQERRGGSLDINDGHCGTGLGSEMNAALMHRRHTDPVQLQAAGRVRWARALYDFEALEDDELGFHSGEVVEVLDSSNPSWWTGRLHNKLGLFPANYVAPMTR
– | binds | – | – | Myc-GrpL (protein, UniProt O75791 1-330) MEAVAKFDFTASGEDELSFHTGDVLKILSNQEEWFKAELGSQEGYVPKNFIDIQFPKWFHEGLSRHQAENLLMGKEVGFFIIRASQSSPGDFSISVRHEDDVQHFKVMRDNKGNYFLWTEKFPSLNKLVDYYRTNSISRQKQIFLRDRTREDQGHRGNSLDRRSQGGPHLSGAVGEEIRPSMNRKLSDHPPTLPLQQHQHQPQPPQYAPAPQQLQQPPQQRYLQHHHFHQERRGGSLDINDGHCGTGLGSEMNAALMHRRHTDPVQLQAAGRVRWARALYDFEALEDDELGFHSGEVVEVLDSSNPSWWTGRLHNKLGLFPANYVAPMTR
– | – | binds | binds | EGFP-HD (705-1128) (domain or fragment, UniProt Q9H3S7 705-1128) QQLLDRELKKKPPPRPTAPKPLLPRREESEAVEAGDPPEELRSLPPDMVAGPRLPDTFLGSATPLHFPPSPFPSSTGPGPHYLSGPLPPGTYSGPTQLIQPRAPGPHAMPVAPGPALYPAPAYTPELGLVPRSSPQHGVVSSPYVGVGPAPPVAGLPSAPPPQFSGPELAMAVRPATTTVDSIQAPIPSHTAPRPNPTPAPPPPCFPVPPPQPLPTPYTYPAGAKQPIPAQHHFSSGIPAGFPAPRIGPQPQPHPQPHPSQAFGPQPPQQPLPLQHPHLFPPQAPGLLPPQSPYPYAPQPGVLGQPPPPLHTQLYPGPAQDPLPAHSGALPFPSPGPPQPPHPPLAYGPAPSTRPMGPQAAPLTIRGPSSAGQSTPSPHLVPSPAPSPGPGPVPPRPPAAEPPPCLRRGAAAADLLSSSPESQH
– | – | no binding | no binding | EGFP-Bro1-V (1-704) (domain or fragment, UniProt Q9H3S7 1-704) MEAVPRMPMIWLDLKEAGDFHFQPAVKKFVLKNYGENPEAYNEELKKLELLRQNAVRVPRDFEGCSVLRKYLGQLHYLQSRVPMGSGQEAAVPVTWTEIFSGKSVAHEDIKYEQACILYNLGALHSMLGAMDKRVSEEGMKVSCTHFQCAAGAFAYLREHFPQAYSVDMSRQILTLNVNLMLGQAQECLLEKSMLDNRKSFLVARISAQVVDYYKEACRALENPDTASLLGRIQKDWKKLVQMKIYYFAAVAHLHMGKQAEEQQKFGERVAYFQSALDKLNEAIKLAKGQPDTVQDALRFTMDVIGGKYNSAKKDNDFIYHEAVPALDTLQPVKGAPLVKPLPVNPTDPAVTGPDIFAKLVPMAAHEASSLYSEEKAKLLREMMAKIEDKNEVLDQFMDSMQLDPETVDNLDAYSHIPPQLMEKCAALSVRPDTVRNLVQSMQVLSGVFTDVEASLKDIRDLLEEDELLEQKFQEAVGQAGAISITSKAELAEVRREWAKYMEVHEKASFTNSELHRAMNLHVGNLRLLSGPLDQVRAALPTPALSPEDKAVLQNLKRILAKVQEMRDQRVSLEQQLRELIQKDDITASLVTTDHSEMKKLFEEQLKKYDQLKVYLEQNLAAQDRVLCALTEANVQYAAVRRVLSDLDQKWNSTLQTLVASYEAYEDLMKKSQEGRDFYADLESKVAALLERTQSTCQAREAAR
– | – | no binding | no binding | EGFP-V-domain (401-700) (domain or fragment, UniProt Q9H3S7 401-700) MQLDPETVDNLDAYSHIPPQLMEKCAALSVRPDTVRNLVQSMQVLSGVFTDVEASLKDIRDLLEEDELLEQKFQEAVGQAGAISITSKAELAEVRREWAKYMEVHEKASFTNSELHRAMNLHVGNLRLLSGPLDQVRAALPTPALSPEDKAVLQNLKRILAKVQEMRDQRVSLEQQLRELIQKDDITASLVTTDHSEMKKLFEEQLKKYDQLKVYLEQNLAAQDRVLCALTEANVQYAAVRRVLSDLDQKWNSTLQTLVASYEAYEDLMKKSQEGRDFYADLESKVAALLERTQSTCQAR
– | – | no binding | no binding | EGFP-PTPc (1171-1475) (domain or fragment, UniProt Q9H3S7 1171-1475) LRQLQQELEAFRGQLGDVGALDTVWRELQDAQEHDARGRSIAIARCYSLKNRHQDVMPYDSNRVVLRSGKDDYINASCVEGLSPYCPPLVATQAPLPGTAADFWLMVHEQKVSVIVMLVSEAEMEKQKVARYFPTERGQPMVHGALSLALSSVRSTETHVERVLSLQFRDQSLKRSLVHLHFPTWPELGLPDSPSNLLRFIQEVHAHYLHQRPLHTPIIVHCSSGVGRTGAFALLYAAVQEVEAGNGIPELPQLVRRMRQQRKHMLQEKLHLRFCYEAVVRHVEQVLQRHGVPPPCKPLASASIS
